Measurements published in the RNAGym collection of RNA variant scans (doi:10.7554/elife.90254).
The source gives no read counts; variants with many changes may rest on few reads.

B1: LINE1-mini (parent)
chain: GGCAGAGCUCAACACAGCGUGGCAAAGUGGCUGUGGCUAGACUGCC

Variants of: B1
Assay: self-cleavage, relative activity (ratio to wild type); higher = more cleavage; in vitro, sequencing; the parent is a self-cleaving ribozyme

| Variant | self-cleavage |
| --- | --- |
| G35U U38G U43A | 0.03 |
| U38G G40C C42A | 0.04 |
| C37A U38A C45G | 0.01 |
| G36A A41G C46U | 0.3 |
| G35C U38G A39U | 0.02 |
| A39U U43A C46A | 0.08 |
| G35U G36A G44U | 0.17 |
| C42A G44C C46A | 0.02 |
| G36C C37U A41C | 0.03 |
| C37G A39U A41G | 0.03 |
| C37U U38C C42A | 0.08 |
| G35U G40C A41G | 0.12 |
| G36C U38A A41U | 0.02 |
| G36A A39U U43C | 0.32 |
| G40C C42U G44A | 0.02 |
| C37A A41G U43G | 0.07 |
| C37A C42A C45A C46U | 0.02 |
| G35U G36C G44C | 0.02 |
| G36A U38A A41C | 0.01 |
| G35U C42G C46U | 0.04 |
| G36C C45U C46G | 0.03 |
| C37U A39G G44A C46U | 0.01 |
| C37G A39U A41C U43A | 0.04 |
| G35A A41G U43A C45A | 0 |
| G36U C45U C46G | 0.1 |
| G35U A41U C42G | 0.07 |

| Variant | self-cleavage |
| --- | --- |
| G35C G44A C46A | 0.02 |
| G36A C37G A39C G44A | 0.06 |
| G36C C37A A39C | 0.06 |
| A41C G44A C45U | 0.07 |
| G35U C37U C42U | 0.31 |
| G35U C37G G44A | 0.05 |
| G35C G36U A39G U43C G44U | 0.08 |
| U38A A39U G40A U43A | 0.09 |
| G40A U43G C46U | 0.01 |
| C37U C45A C46U | 0.13 |
| G35C G36U U43C | 0.04 |
| G36C U38G G44A | 0.22 |
| G35U C37A U43C | 0.08 |
| U38A A39U C46U | 0.72 |
| G35A C37G U38A | 0.01 |
| G36U C37A C45G C46U | 0.03 |
| G35C U38A G40U | 0.1 |
| G35C C42U C45U | 0.07 |
| U34G G35U G40U | 0.03 |
| C37U C42U U43A | 0.06 |
| G36A C37U C42U | 0.12 |
| G36U C37U C46G | 0.02 |
| G36C C37U G40C G44C | 0.07 |
| A39U C42A C46U | 0.05 |
| C37A A41C G44C | 0.14 |
| G36U A39U U43C | 0.03 |

| Variant | self-cleavage |
| --- | --- |
| G36C A39U C42A | 0.01 |
| C37A C42G G44A | 0.03 |
| G40C A41C G44U | 0.59 |
| G40U A41U C45U | 0.34 |
| G36U C37U C42A | 0.01 |
| U38C A41G C46A | 0.11 |
| G35U A39G C42U | 0.13 |
| U34G G36A C45U | 0.06 |
| G40A A41U G44U | 0.03 |
| C37G C42U U43G | 0.03 |
| G36C G40C C45G C46A | 0.08 |
| G35C G40A C45A | 0.07 |
| G36A A39U A41C C42A | 0.07 |
| G36A U38A G40U | 0.16 |
| U34G U38A G40U | 0.04 |
| G35C C37G G40U A41U C42G | 0 |
| U38A A41U G44A | 0.08 |
| G36U A39U A41U | 0.26 |
| A39U G44U C46U | 0.05 |
| C37A U38G A41U | 0.01 |
| C37A A41U G44A | 0.03 |
| G35C G44C C46A | 0.08 |
| G40C G44A C45A | 0.01 |
| G44C C45A C46A | 0.03 |
| U38G C42U C45U | 0.01 |
